The list shows a part of the results. At the low end of the ranking the order means little.

The target of the test is T1, GST-Rok-C97-191 (UniProt O34857).
T1 sequence: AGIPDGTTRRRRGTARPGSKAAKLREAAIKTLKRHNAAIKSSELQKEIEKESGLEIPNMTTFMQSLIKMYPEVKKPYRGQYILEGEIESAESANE
As to the kind of experiment: protein binding microarray.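 Also: rank score from −0.5 (least bound) to 0.5 (best bound).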 To be noted: Rok is a gene silencer of Bacillus subtilis; high values mean tight binding; most listed sequences are background and not binding sites; double strand, one strand shown.
Take GCCGCGAA: the binding signal is -0.185 E-score.

Regarding ATGGCATC, the binding signal stood at 0.0263 E-score. In turn, CACACTAG returned a binding signal of 0.176 E-score. For AACTCTAT the value was 0.0996 E-score; for GCTCAAGC, -0.123 E-score. For the sequence CCTACAAC, the binding signal was found to be 0.114 E-score. In the case of TTAACGAA, the binding signal came to 0.0989 E-score.

Turning to GCGTAGAA, the binding signal was 0.154 E-score.

As to CAGGTCCG, the binding signal is -0.126 E-score. In the case of GCGGAGAC, the binding signal was -0.215 E-score. As for GCCCAGCA, the binding signal is -0.16 E-score. In turn, ACTGGTCG gave a binding signal of -0.246 E-score. With ACATGTTG, the binding signal worked out at 0.0409 E-score. CCGCGATA gave a binding signal of 0.207 E-score. Under GCCAGAGC stands -0.3 E-score. Regarding TATTCAGA, the binding signal is -0.148 E-score. With CCGCCCAA, the binding signal was -0.0883 E-score. Under CTGAACCA stands -0.168 E-score; under CTATAGCC, 0.0226 E-score. For ATGATAAT the value was 0.286 E-score. Under CAAACATC stands -0.00278 E-score; under CAGAATCA, 0.155 E-score. ATCAAGTA yielded a binding signal of 0.0281 E-score. For AACCCGGT the value was -0.0892 E-score. For AGAAACTG the value was 0.0822 E-score; for ACTAGTTG, 0.313 E-score. Under CCCTCCGA stands -0.188 E-score; under AAGTCAGA, 0.0648 E-score; under AACATGGA, 0.103 E-score. With AATTGTAC, the binding signal is 0.211 E-score.

With CTTTAGAC, the binding signal was -0.00267 E-score.

For the sequence TCCTTCAA, the binding signal is 0.0337 E-score. Under GGGGATTA stands -0.11 E-score; under GGCTTGGA, -0.316 E-score; under ACCGATCA, 0.0534 E-score. AACCACAC showed a binding signal of 0.141 E-score. For CCAGCTCC the value was -0.364 E-score. For AATAGGAA the value was 0.0721 E-score; for AAGCCAGG, -0.144 E-score.

Regarding ATTATTCG, the binding signal is 0.0864 E-score. CACGTCCC came in with a binding signal of -0.114 E-score. In the case of ACTGATAC, the binding signal was determined as 0.109 E-score. Under ATGGCCGG stands -0.258 E-score; under CGTATATC, 0.316 E-score. For CTTCGCAC the value was -0.0323 E-score; for GCATGCGC, -0.245 E-score. Under CACATACG stands -0.0463 E-score; under ACGCGCCG, -0.217 E-score; under CAAGAATG, 0.0543 E-score. AGCCGAAG had a binding signal of -0.121 E-score.

On to ACACCTTA, for which the binding signal was -0.112 E-score. In turn, AAGGGGTA had a binding signal of -0.0952 E-score.

GCACGATA: the binding signal is 0.103 E-score. Under CAACGCAA stands 0.00655 E-score; under CCCTAAAC, -0.132 E-score; under ATCCCGTC, -0.181 E-score. Regarding ATAGACCA, the binding signal was 0.0502 E-score. For the sequence ACTTAGGA, the binding signal came out at 0.097 E-score. AGAGTCGC: the binding signal is -0.248 E-score.

The sequence ACGGAGTC showed a binding signal of -0.228 E-score. For ATGAACAG, the binding signal was 0.0982 E-score. Under CACTTCTC stands -0.125 E-score; under GTGATACA, 0.148 E-score.

CATACATC came in with a binding signal of 0.0281 E-score. For GCTTAACA the value was 0.105 E-score. In turn, CGGCCTAC yielded a binding signal of -0.19 E-score. For AACAATCA, the binding signal is -0.00685 E-score. The sequence CCCACAGA returned a binding signal of -0.0946 E-score. Under AGGTAAAT stands 0.247 E-score. CGACGAAA showed a binding signal of -0.151 E-score. CCTCGCTC: the binding signal is -0.125 E-score.

Consider CCGTCCTA, for which the binding signal was found to be 0.0295 E-score.

The sequence CGCATCCG came in with a binding signal of -0.229 E-score. Under AAAGTGGA stands -0.114 E-score.

In turn, ACAGAGAC yielded a binding signal of -0.165 E-score. Sequence AGATCTCA returned a binding signal of 0.113 E-score.

For the sequence AACTAGAA, the binding signal turned out to be 0.363 E-score. For CGGATTTC the value was -0.106 E-score; for CCACAACA, -0.0725 E-score; for TAATTTGA, 0.185 E-score.

Sequence ATTCTGAC registered a binding signal of -0.158 E-score. For GGGCTCAA the value was -0.323 E-score; for AGAGTTCA, -0.0509 E-score; for ACCTCATG, -0.163 E-score.

Sequence TACACAGA displayed a binding signal of 0.174 E-score. For CTGCTGTA the value was 0.0299 E-score; for CTTCGAGC, -0.266 E-score; for AAGAGCAA, -0.0707 E-score. For CGATTTGC, the binding signal turned out to be 0.05 E-score.

With CGACCGAA, the binding signal is -0.0986 E-score.

ATAGTAAC gave a binding signal of 0.28 E-score.

For the sequence ACAACGGT, the binding signal is -0.123 E-score. Consider GCGGACCA, for which the binding signal was -0.0341 E-score. Sequence ACCCGCGG showed a binding signal of -0.237 E-score. GGGAAAGA displayed a binding signal of -0.13 E-score. Under AACAAGTT stands 0.0415 E-score; under CATAGAAG, 0.188 E-score.

On to AAAGACCG, for which the binding signal was -0.0525 E-score. In the case of GTTAGTTA, the binding signal came out at 0.325 E-score.

Consider CAATGATG, for which the binding signal worked out at 0.0738 E-score. Under CTACCCTA stands 0.226 E-score; under ACTTCCCT, 0.141 E-score.

The sequence GAGGCCAC registered a binding signal of -0.228 E-score.

The sequence AGGGGGAT showed a binding signal of -0.446 E-score.

CCAGGGAG yielded a binding signal of -0.125 E-score. In turn, TGCTACAA came in with a binding signal of 0.207 E-score. The sequence AGCGTGAC displayed a binding signal of -0.171 E-score. For GAAGCTTC the value was -0.139 E-score; for CGTACACG, -0.0266 E-score.

For the origin of these results see PMC6212790.
